Laboratory results reported in PubChem BioAssay AID488969 (Vanderbilt High Throughput Screening Facility, 2010).
Whole data set: some 110,000 compounds, median “z-score” near -0.1, cut for the highest 2% near 2. Some of the results follow. The source made the active and inactive calls.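 How the source made its calls: active means z-score in the third read window above 3 or below -3; inactive means the rest.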

biological target: Metabotropic glutamate receptor 8 (Rattus norvegicus) (UniProt P70579); experiment: rat mGluR8 modulators via GIRK flux, primary screen, cell-based, thallium flux, HTS (AID 488969); settings: HEK293 rat mGluR8, GIRK (G protein-gated inwardly rectifying potassium channel) thallium flux, FluoZin2; at 10 µM; stronger effect = higher value; submaximal glutamate (EC20) added with thallium
Sequence of UniProt P70579 (P70579 whole entry, looked up): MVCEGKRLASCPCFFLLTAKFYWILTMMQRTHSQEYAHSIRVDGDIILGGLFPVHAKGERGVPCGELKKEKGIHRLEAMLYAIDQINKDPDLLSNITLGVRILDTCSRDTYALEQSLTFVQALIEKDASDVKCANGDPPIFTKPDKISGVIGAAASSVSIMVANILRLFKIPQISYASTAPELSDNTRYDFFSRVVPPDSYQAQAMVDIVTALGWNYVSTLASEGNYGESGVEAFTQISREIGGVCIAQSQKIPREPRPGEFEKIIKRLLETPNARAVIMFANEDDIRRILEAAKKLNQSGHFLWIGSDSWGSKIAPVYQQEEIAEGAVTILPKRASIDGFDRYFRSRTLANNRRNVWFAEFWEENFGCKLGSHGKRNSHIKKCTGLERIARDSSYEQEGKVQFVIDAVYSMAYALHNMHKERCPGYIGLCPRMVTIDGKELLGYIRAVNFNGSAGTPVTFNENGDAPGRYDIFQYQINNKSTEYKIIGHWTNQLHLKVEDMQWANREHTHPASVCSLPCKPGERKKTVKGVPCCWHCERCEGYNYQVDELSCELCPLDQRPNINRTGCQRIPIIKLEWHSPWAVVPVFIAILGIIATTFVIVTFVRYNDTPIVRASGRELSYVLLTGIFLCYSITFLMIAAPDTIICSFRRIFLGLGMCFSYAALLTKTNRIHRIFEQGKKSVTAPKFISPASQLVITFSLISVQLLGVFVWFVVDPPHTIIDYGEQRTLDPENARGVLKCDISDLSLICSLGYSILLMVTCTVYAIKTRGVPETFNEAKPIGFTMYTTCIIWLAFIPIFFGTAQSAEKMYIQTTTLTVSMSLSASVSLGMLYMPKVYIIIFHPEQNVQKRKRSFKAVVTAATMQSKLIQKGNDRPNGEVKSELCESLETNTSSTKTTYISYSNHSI

Row | SMILES | z-score
1 | Cc1nc2c(sc3nc4c(cc32)COC(C)(C)C4)c(=O)n1Cc1ccccc1 | -0.288
2 | O=C(Cc1ccccc1)N/N=C/c1cccs1 | -0.0533
3 | COc1cc(C(C)=O)ccc1Oc1ncnc2c1cnn2-c1cccc(Cl)c1 | -0.276
4 | c1ccc(CSc2nnnn2-c2ccccc2)cc1 | -0.542
5 | CCn1c(O)c(N=NC(=O)C2C(=O)NCC2c2ccccc2)c2ccccc21 (configuration not stated) | -1.27
6 | CCN1C(=O)/C(=C2\C=Cc3ccccc3N2CC)SC1=S | -0.394
7 | Cc1ccc(C)c(Cc2c(C)nc(C)[nH]c2=O)c1 | -0.437
8 | O=C1NCCNC1(c1c[nH]c2ccccc12)C(F)(F)F (configuration not stated) | 0.109
9 | CC(Oc1ccccc1)C(=O)Nc1nc2c(s1)C(=O)CC(C)(C)C2 (configuration not stated) | -0.467
10 | CCC(NC(=O)Nc1nnc(C(F)(F)F)s1)(C(F)(F)F)C(F)(F)F | 0.241
11 | COc1ccc(N2CCN(C(=O)Cc3cccs3)CC2)cc1 | -0.253
12 | CCOC(=O)N1CCN(C(=O)c2cn(CC(C)C)c(=O)c3c2c2ccccc2n3C)CC1 | 0.017
13 | Nc1ccccc1C(=O)N(Cc1ccccc1)Cc1ccccc1 | -0.434
14 | O=C(NC1CCCC1)c1ccc(S(=O)(=O)N2CCCC2)cc1 | -0.088
15 | Cc1ccnc(NC(=O)c2ccc(N3C(=O)CCC3=O)cc2)c1 | 1.29
16 | C=CCNc1nc(-c2ccccn2)nnc1-c1ccccc1 | 0.406
17 | Cc1cc(C)cc(OCC(=O)Nc2cccc(-c3nc4ncccc4o3)c2)c1 | -0.0133
18 | Cc1occc1-c1nnc(SCC(=O)Nc2ccccc2-c2ccccc2)n1C | 0.802
19 | Cc1ccc(C(=O)Cn2ncsc2=N)cc1 | 0.0685
20 | CC(SC(=S)N(C)Cc1cccs1)C(=O)O (configuration not stated) | 0.108
21 | CCOC(=O)Nc1ccc2c(c1)N(C(=O)CN(CC)CC)c1ccccc1C=C2 | 0.6
22 | O=C1CC(=C(c2ccccc2)c2ccccc2)C(=O)N1CCCCN1CCN(c2ccccc2)CC1 | 0.472
23 | COc1ccc(N(C(=O)c2cnccn2)C(C(=O)NC2CCCCC2)c2ccc(Cl)cc2)cc1 (configuration not stated) | -0.0526
24 | CCC(c1nnnn1Cc1ccc(F)cc1)N1CCN(C2CCCCC2)CC1 (configuration not stated) | 0.911

Row | SMILES | z-score
25 | O=C(NC(Cc1ccccc1)c1nc2ccccc2[nH]1)C1CC(=O)N(c2ccc3c(c2)OCCO3)C1 (configuration not stated) | -0.449
26 | CC12CCC(C(=O)NCC3CCCO3)(OC1=O)C2(C)C (configuration not stated) | -0.214
27 | Cc1ccc(SCC(=O)NC(=O)Nc2ccc3c(c2)OCCO3)c(C)c1 | -0.065
28 | Cc1cc(OCCN2CCOCC2)nc2ccccc12 | -0.295
29 | N#Cc1c(NC(=O)/C=C/c2ccco2)sc2c1CCCC2 | -0.0129
30 | Cc1ccccc1C(=O)Oc1ccc(Sc2ccc(O)cc2)cc1 | -0.112
31 | Cc1ccc(N(C)S(=O)(=O)c2cccc(C(=O)NC3=NCCS3)c2)cc1 | 0.0685
32 | COc1ccc(NC(=S)NN2CCOCC2)cc1OC | -0.21
33 | Cc1noc(C)c1C(c1ccccc1)c1ccccc1 | -0.172
34 | CCn1c(SCc2nc3ccccc3[nH]2)nnc1-c1cccnc1 | -0.0726
35 | Nc1ccccc1Nc1cc(-c2ccccc2)nn1-c1cccc(Cl)c1 | -0.443
36 | O=C(Cc1nnc(NC(=O)c2ccccc2)s1)N/N=C/c1ccco1 | -0.0768
37 | O=C(OCC(=O)N1CCc2ccccc2C1)c1cccc([N+](=O)[O-])c1 | -0.292
38 | CCOC(=O)Cn1c(=O)cnc2ccccc21 | -0.646
39 | COc1ccc(OC)c2c(C)cc(N3CCCN(C)CC3)nc12 | 0.252
40 | CCOc1ccc(Nc2n[nH]c(=S)s2)cc1 | 0.381
41 | CCOC(=O)c1ccc2cccc(C)n2c1=O | -0.0925
42 | Cc1cccc(C)c1NC(=O)CCCSc1nnnn1C | -1.66
43 | CN(Cc1ccccc1)C(=S)Nc1ccc(OC(F)F)cc1 | -0.193
44 | CCc1cccc(NC(=O)CSC2=NS(=O)(=O)c3ccccc32)c1 | active: 3.52
45 | O=C(CC1SC(=NCC2CCCO2)NC1=O)Nc1cccc2ccccc12 (configuration not stated) | -0.724
46 | Cc1ccc([N+](=O)[O-])cc1NC(=O)c1ccc(C(C)(C)C)cc1 | -1.53
47 | Cc1cc(NC(=O)Cc2csc(-c3ccccc3)n2)ccc1Br | -0.317
48 | CCOc1ccc(OCC)c(NC(=O)CN2CCN(C(=O)c3ccco3)CC2)c1 | 0.342

Row | SMILES | z-score
49 | CCOc1cc(NS(=O)(=O)c2ccc(NC(C)=O)cc2)c(OCC)cc1NC(=O)c1cccs1 | -0.155
50 | c1ccc(CNn2nnnc2-c2ccccc2)cc1 | 0.451
51 | Cc1cc(C(=O)O)c(C)n1-c1ccccc1 | 0.165
52 | O=C(CSCCO)Nc1cccc([N+](=O)[O-])c1 | -1.53
53 | O=C(CNC(=S)N(CCCN1CCOCC1)Cc1cccs1)NCCCN1CCOCC1 | 0.295
54 | Cc1cc(OCC(=O)c2ccc(Br)cc2)ccc1N1C(=O)CCC1=O | 0.164
55 | CN1/C(=C\C(=O)c2ccco2)C(C)(C)c2ccccc21 | -0.359
56 | Cc1onc(-c2ccccc2Cl)c1C(=O)N1C=CC(C(F)(F)Cl)=NCC1 | -0.0476
57 | CC(C)(C)C(=O)Cn1ncc(NC2CC2)c(Br)c1=O | -0.0684
58 | CNC(=S)N1CCN(c2c(F)cc3c(=O)c(C(=O)O)cn(C4CC4)c3c2OC)CC1C (configuration not stated) | -0.537
59 | Cc1cccc2cc(CN(Cc3ccccc3)C(=O)N(C)C)c(=O)[nH]c12 | -0.295
60 | C/C(CC(=O)Nc1ccc2ccccc2c1)=N\NC(=O)c1cnccn1 | -0.0823
61 | O=C(NNC(=S)NC(=O)C12CC3CC(CC(C3)C1)C2)c1ccncc1 | 0.609
62 | N/C(Cc1ccc(Cl)cc1)=N\OC(=O)c1ccc2ccccc2c1 | 0.0736
63 | Cc1ccc(NS(=O)(=O)c2ccc(NC(=O)C3CCCO3)cc2)cc1 (configuration not stated) | 0.664
64 | Cc1cccn2c(=O)c3cc(C(=O)N4CCN(C(=O)c5ccco5)CC4)n(C)c3nc12 | -1.28
65 | Cc1cccn2c(=O)c(/C=C(\C#N)C(N)=O)c(N3CCN(Cc4ccc5c(c4)OCO5)CC3)nc12 | -0.0419
66 | Clc1ccc(-c2nc3ccncc3[nH]2)cc1 | 0.48
67 | O=C(c1cccnc1)N1CCN(C(=O)c2cccs2)CC1 | -1.34
68 | CC(C)CC(=O)OC1C(N2CCOCC2)c2c(ccc(/C=C/C(=O)N3CCOCC3)c2O)OC1(C)C (configuration not stated) | -0.311
69 | Cc1ccc2c(c1)c(C)c(C)n2CC(O)CN1CCCCC1C (configuration not stated) | 0.526
70 | COc1ccc(NC(=O)NN(C(=O)c2ccccc2)C(C)(C)C)cc1 | -0.214
71 | C=CCOc1ccc(C=Nc2ccc(C)c(Cl)c2)c(O)c1 | -0.435
72 | CCOC(=O)c1c(NC(=O)Nc2ccc(Cl)cc2)sc(C)c1C | -0.143
